Results: PubChem BioAssay AID504332 (National Center for Advancing Translational Sciences (NCATS), 2011)
Values joined by “and” are separate entries in the source; they are usually repeats but may differ in a detail not shown here. Equal values may be shown once. In all, about 350,000 compounds went through this assay and about 31,000 (8.9%) were called active. Inconclusive means that the source gave no clear call. Such entries were picked first, then a sample of the others. Calls follow the shape of the dose curve; as a rule, active = well fitted inhibition curve with a large enough effect; inconclusive = small, poorly fitted or top-dose-only effect; inactive = no such curve, though single readings can be large or run the other way. Potencies beside an inconclusive call are fits to weak or partial responses and may not hold up.

What follows are compounds tested against Histone-lysine N-methyltransferase EHMT2 (Homo sapiens) (UniProt Q96KQ7) (assay: qHTS Assay for Inhibitors of Histone Lysine Methyltransferase G9a). Settings: G9a H3K9 monomethylation, AlphaScreen, 2 h; activity, negative = inhibition: at 59 µM (top of the series) unless noted.
How it was run: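 Using a bead-based AlphaScreen, monomethylated H3K9 product from 2 h room-temperature reactions (G9a 20 nM, peptide 500 nM, SAM 20 uM) was detected with 0.5 ug/mL rabbit anti-H3K9me1 antibody.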
% is scaled to controls: 0 for no effect and ±100 for the full control effect; potency is read from the fitted curve at half-maximal effect; tags tell the direction and shape of the fitted curve.
Also: nearly all actives have a fitted effect of over 75% in size.

UniProt Q96KQ7, sequence (Q96KQ7 whole entry, looked up): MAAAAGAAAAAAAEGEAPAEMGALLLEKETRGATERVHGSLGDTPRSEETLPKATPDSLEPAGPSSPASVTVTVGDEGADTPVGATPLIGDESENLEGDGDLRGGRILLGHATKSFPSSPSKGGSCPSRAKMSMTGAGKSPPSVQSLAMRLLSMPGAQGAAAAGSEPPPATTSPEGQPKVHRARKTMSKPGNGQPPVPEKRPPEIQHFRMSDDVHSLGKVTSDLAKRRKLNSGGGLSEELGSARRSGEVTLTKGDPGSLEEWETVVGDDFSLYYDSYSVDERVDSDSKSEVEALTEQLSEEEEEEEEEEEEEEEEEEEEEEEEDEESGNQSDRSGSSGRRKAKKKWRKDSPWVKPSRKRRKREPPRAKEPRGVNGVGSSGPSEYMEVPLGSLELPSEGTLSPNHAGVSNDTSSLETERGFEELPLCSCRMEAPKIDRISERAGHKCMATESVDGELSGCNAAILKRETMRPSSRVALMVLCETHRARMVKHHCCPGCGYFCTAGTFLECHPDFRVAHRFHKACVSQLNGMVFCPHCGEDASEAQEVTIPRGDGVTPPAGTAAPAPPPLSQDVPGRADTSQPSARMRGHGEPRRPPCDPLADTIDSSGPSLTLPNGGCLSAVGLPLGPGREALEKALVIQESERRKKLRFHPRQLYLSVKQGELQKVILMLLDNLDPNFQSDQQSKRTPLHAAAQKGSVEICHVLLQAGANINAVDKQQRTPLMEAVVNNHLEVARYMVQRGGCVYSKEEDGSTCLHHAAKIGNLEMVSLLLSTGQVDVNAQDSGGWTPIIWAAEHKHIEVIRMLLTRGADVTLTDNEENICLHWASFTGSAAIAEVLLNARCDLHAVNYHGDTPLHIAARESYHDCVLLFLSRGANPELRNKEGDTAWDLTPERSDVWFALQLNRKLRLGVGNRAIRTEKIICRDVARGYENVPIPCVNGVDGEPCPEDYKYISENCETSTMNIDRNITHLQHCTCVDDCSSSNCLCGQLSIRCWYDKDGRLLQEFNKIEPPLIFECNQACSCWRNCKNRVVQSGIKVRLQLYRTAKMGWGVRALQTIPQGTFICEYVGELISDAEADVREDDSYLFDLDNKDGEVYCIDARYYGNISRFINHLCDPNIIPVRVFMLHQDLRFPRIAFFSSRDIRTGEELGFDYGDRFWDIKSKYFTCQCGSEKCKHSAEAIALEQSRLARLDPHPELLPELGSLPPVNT

Row | SMILES | Potency | activity, negative = inhibition
1 | CN1C(=O)C2(c3ccccc31)N(c1ccc(F)c(Cl)c1)C(=O)CS2(=O)=O (centres undefined) | inconclusive: 12.6 µM [inhibitor, partial curve] | –
2 | CCOC(=O)N1CCC(NC(=O)c2ccc3c(c2)N(Cc2cc(C)ccc2C)C(=O)c2ccccc2S3=O)CC1 (centres undefined) | inactive | –
3 | CC1CC(C)CN(C2CCN(Cc3cccnc3)CC2)C1 (centres undefined) | active: 2 µM | –
4 | CC1CCN(c2nc3c(c(=O)n(C)c(=O)n3C)n2Cc2ccccc2)CC1 | inconclusive: 28.2 µM [inhibitor, partial curve, poor fit] | –
5 | CCOC(=O)c1c(NC(=O)/C=C\C(=O)O)sc(C)c1-c1ccccc1 | inconclusive: 44.7 µM [inhibitor, partial curve, poor fit] | –
6 | Cc1ccc(S(=O)(=O)N2C(=O)/C(=C3\SC(=S)NC3=O)c3ccccc32)cc1 | inconclusive: 2.24 µM [inhibitor, partial curve] | –
7 | CCOc1cc(N2CCOCC2)c(OCC)cc1NC(C)C(=O)N1CCC(C)CC1 (centres undefined) | active: 39.8 µM | –
8 | CC(C)(CN1CCCC1)NS(=O)(=O)c1ccc(Cl)cc1 | – | inactive: 4.6% [at 12.7 µM]
9 | CCOC(=O)/C(C#N)=N/Nc1c(C)n(C)n(-c2ccccc2)c1=O | active: 17.8 µM | –
10 | COCCNCCCOc1ccc(C(C)(C)c2ccccc2)cc1 | active: 10 µM | –
11 | CCOC(=O)C(Cc1ccc(O)cc1)NC(=O)CNC(=O)C1CCCN1C(=O)OC(C)(C)C (centres undefined) | inactive | –
12 | COc1cccc(CNC(=O)C2CCN(S(=O)(=O)c3c(C)nn(C)c3C)CC2)c1 | inactive | –
13 | CNS(=O)(=O)c1ccc(NC(=O)Nc2ccc3c(c2)OCO3)cc1 | inconclusive: 89.1 µM [inhibitor, single point] | –
14 | Cc1ccc(C)c(CSC2=NCCN2C(=O)Cc2ccc([N+](=O)[O-])cc2)c1 | inconclusive: 89.1 µM [inhibitor, single point] | –
15 | CCOC(=O)N1CCN(C(=O)CSc2ncnc3ccccc23)CC1 | inconclusive: 50.1 µM [inhibitor, partial curve] | –
16 | Cc1ccc(NC(=O)CSCc2c(C)noc2C)cc1C | inactive | –
17 | Cc1noc(C)c1CSCC(=O)N(C)CC(=O)Nc1ccc(Cl)c(Cl)c1 | inconclusive: 89.1 µM [inhibitor, partial curve, poor fit] | –
18 | CCOC(=O)N1CCC(NC(=O)C2CCCN(S(=O)(=O)c3ccc4c(c3)oc(=O)n4C)C2)CC1 (centres undefined) | inconclusive: 31.6 µM [inhibitor, single point] | –
19 | COc1ccc2[nH]c(C)c(CN3CCC(C)CC3)c(=O)c2c1 | inconclusive: 89.1 µM [inhibitor, single point] | –
20 | S=C1NCCc2ccc(Cl)cc2C1c1ccccc1Cl (centres undefined) | inconclusive: 39.8 µM [inhibitor, single point] | –
21 | COc1cccc2oc(-c3ccco3)cc(=O)c12 | active: 5.62 µM | –
22 | Cc1ccc(-c2nnn(CC(=O)N(Cc3ccccc3)C(C(=O)NC3CCCC3)c3ccncc3)n2)o1 (centres undefined) | active: 22.4 µM | –

Row | SMILES | Potency | activity, negative = inhibition
23 | N#Cc1ncc(Cc2ccccc2)nc1C#N | active: 50.1 µM | –
24 | O=C(/C=C/c1ccccc1)Oc1ccc(C(=S)N2CCOCC2)cc1 | inactive | –
25 | COCCCN(CC(=O)Nc1ccc(N2CCOCC2)cc1)S(=O)(=O)c1ccccc1 | inconclusive: 56.2 µM [inhibitor, partial curve] | –
26 | Cn1cc(CCCC(=O)NCc2ccccc2Cl)c2ccccc21 | inactive | –
27 | CCOC(=O)c1c(NC(=O)CSc2nc(-c3ccccc3)cc(C(F)(F)F)n2)sc(C)c1C | active: 6.31 µM | –
28 | CCCCn1c(NC(=O)c2ccc(Br)o2)c(S(=O)(=O)c2ccccc2)c2nc3ccccc3nc21 | – | inactive: 10.1% [at 12.7 µM]
29 | O=C(COC(=O)[C@H](Cc1ccccc1)NC(=O)c1ccco1)NC(c1ccccc1)c1ccccc1 | inconclusive: 39.8 µM [inhibitor, single point] | –
30 | Cc1cc(C)cc(Nc2nc3ccccc3c(=O)[nH]2)c1 | inactive | –
31 | COc1ccc(S(=O)(=O)N2CCN(c3ccc4nnc(-c5ccccc5)n4n3)CC2)cc1 | inconclusive: 89.1 µM [inhibitor, single point] | –
32 | CCN(C(=O)CSc1nc(-c2ccccc2)cn1N)c1c(N)n(Cc2ccccc2)c(=O)[nH]c1=O | inconclusive: 2 µM [inhibitor, partial curve] | –
33 | Cc1cc(C)c2cc(C(=O)N3CCN(c4ncccc4C(F)(F)F)CC3)[nH]c2c1 | inconclusive: 50.1 µM [inhibitor, partial curve, poor fit] | –
34 | COc1cc(OC)c(/C=N/NC(=O)Cn2nc([N+](=O)[O-])cc2C)c(OC)c1 | inactive | –
35 | C/C(=N/NS(=O)(=O)c1cccc([N+](=O)[O-])c1)c1ccc2c(c1)OCO2 | active: 31.6 µM | –
36 | Cc1ccc(N2C(=O)C3C4C=CC(CNC(=S)N5CCN(c6ccccc6)CC5)(O4)C3C2=O)cc1 (centres undefined) | active: 2.24 µM | –
37 | CNC(=O)c1[nH]cnc1C(=O)Nc1cccc(OC)c1 | – | inconclusive: -84.6% [inhibitor]
38 | O=c1c([N+](=O)[O-])c(O)c2cccc3c2n1CCC3 | active: 79.4 µM | –
39 | CCC1(O)CC2CN(CCc3c([nH]c4ccccc34)[C@@](C(=O)OC)(c3cc4c(cc3OC)N(C=O)C3[C@]45CCN4CC=C[C@@](CC)([C@@H](OC(C)=O)[C@]3(O)C(=O)OC)[C@H]45)C2)C1 (some centres undefined) | inconclusive: 79.4 µM [inhibitor, partial curve] and inconclusive: 37.7 µM [inhibitor, single point] | –
40 | O=c1c(C(c2nnnn2C2CCCCC2)N2CCCCC2)coc2ccc(Cl)cc12 (centres undefined) | inconclusive: 50.1 µM [inhibitor, partial curve] | –
41 | CC(=O)CSc1nsc(SCC(C)=O)c1C#N | active: 8.91 µM | –
42 | O=S(=O)(c1ccccc1)N1N=C(c2ccc(Br)cc2)CC1c1ccco1 (centres undefined) | inconclusive: 79.4 µM [inhibitor, single point] | –
43 | Cc1cc(C(=O)N/N=C/c2ccc(N(C)C)o2)cs1 | inconclusive: 10 µM [inhibitor, full curve, poor fit] | –
44 | Cc1cc(C)nc(SCCS(=O)(=O)Cc2ccccc2)n1 | – | inactive: -1.21% [at 12.7 µM]
